Experimental data published in patent US20230124669A1 (ADAGENE, published 2023).

B1: TY22122 (bispecific antibody, human IgG1, kappa)
heavy: DIQLTQSPSSLSASVGDRVTITCRASQSIGSYLAWYQQKPGKAPKLLIYDASNLETGVPSRFSGSGSGTDFTLTISSLQPEDFATYYCQQGYYLWTFGQGTKVEIKRTVAAPSVFIFPPSDEQLKSGTASVVCLLNNFYPREAKVQWKVDNALQSGNSQESVTEQDSKDSTYSLSSTLTLSKADYEKHKVYACEVTHQGLSSPVTKSFNRGEC
light: EVQLVESGGGLVQPGGSLRLSCAASGFSLSTGGVGVGWIRQAPGKGLEWLALIDWADDKYYSPSLKSRLTISRDNSKNTLYLQLNSLRAEDTAVYYCARGGSDTVIGDWFAYWGQGTLVTVSSASTKGPSVFPLAPSSKSTSGGTAALGCLVKDYFPEPVTVSWNSGALTSGVHTFPAVLQSSGLYSLSSVVTVPSSSLGTQTYICNVNHKPSNTKVDKRV[human IgG1 Fc not listed]GGGSEVQLVESGGGLVQPGGSLRLSCAASGYSISSGYYWGWIRQAPGKCLEWIGIIYPSGGGTNYAQKFQGRVTISRDNSKNTLYLQLNSLRAEDTAVYYCARGGGLGFDYWGQGTLVTVSSGGGGSGGGGSGGGGSGGGGSDIQLTQSPSSLSASVGDRVTITCRASQSIPSFLNWYQQKPGKAPKLLIYAASSLQSGVPSRFSGSGSGTDFTLTISSLQPEDFATYYCQHYISWPRQFTFGCGTKVEIKR
notes: Morrison format: anti-CD137 Fab, anti-PDL1 scFv at the C-terminus of the Fc; IgG1; also called CD137 × PDL1 bispecific antibody, format TYF01
B2: TY22149 (bispecific antibody, human IgG1, kappa)
heavy: B1 heavy
light: EVQLVESGGGLVQPGGSLRLSCAASGFSLSTGGVGVGWIRQAPGKGLEWLALIDWADDKYYSPSLKSRLTISRDNSKNTLYLQLNSLRAEDTAVYYCARGGSDTVIGDWFAYWGQGTLVTVSSASTKGPSVFPLAPSSKSTSGGTAALGCLVKDYFPEPVTVSWNSGALTSGVHTFPAVLQSSGLYSLSSVVTVPSSSLGTQTYICNVNHKPSNTKVDKRV[human IgG1 Fc with N390C S400C (EU numbers) not listed]SGGGSEVQLVESGGGLVQPGGSLRLSCAASGYSISSGYYWGWIRQAPGKCLEWIGIIYPSGGGTNYAQKFQGRVTISRDNSKNTLYLQLNSLRAEDTAVYYCARGGGLGFDYWGQGTLVTVSSGGGGSGGGGSGGGGSGGGGSDIQLTQSPSSLSASVGDRVTITCRASQSIPSFLNWYQQKPGKAPKLLIYAASSLQSGVPSRFSGSGSGTDFTLTISSLQPEDFATYYCQHYISWPRQFTFGCGTKVEIKR
notes: Morrison format: anti-CD137 Fab, anti-PDL1 scFv; IgG1 with N390C:S400'C; also called CD137 × PDL1 bispecific antibody, format TYF02

Key:
[1] = biological target: T1, Human CD137 (SPR analyte) (human, UniProt Q07011 24-186, limits assumed); assay: SPR (Biacore T200), antibody captured by anti-human IgG on CM5 chip, antigen injected as analyte, 1:1 Langmuir fit
T1 construct: also called CD137H
Experimental: (§1) Biacore T200 (GE Healthcare) was used as a high performance system for real-time biomolecular interaction analysis, using surface plasmon resonance technology (“SPR”). During the measurement, anti-human IgG monoclonal antibody from the Human Antibody Capture Kit provided by Biacore was immobilized on CM5 chips, and IgG sample was injected onto sensor chip. Analytes were injected onto IgG captured flow cell for binding kinetic analysis in HBS-EP buffer.

Human PDL1 (SPR analyte) = biological target: T2, Human PDL1 (SPR analyte) (human, UniProt Q9NZQ7 fragment, limits assumed); assay: as above
Chain of Human PDL1 (SPR analyte) (Q9NZQ7 19-238 limits assumed): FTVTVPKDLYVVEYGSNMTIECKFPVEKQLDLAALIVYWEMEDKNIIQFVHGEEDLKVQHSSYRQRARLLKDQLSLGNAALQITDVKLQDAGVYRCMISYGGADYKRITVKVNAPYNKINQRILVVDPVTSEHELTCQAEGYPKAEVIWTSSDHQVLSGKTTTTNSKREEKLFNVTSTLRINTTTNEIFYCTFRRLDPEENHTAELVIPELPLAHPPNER
T2 construct: also called PDL1H
Experimental: as §1

Row | Binder | Kd [1] [nM] | Kd (Human PDL1 (SPR analyte)) [nM]
1 | B1 | 3.8 | 29.7
2 | B2 | 2.4 | 32
